In PubChem BioAssay AID686978 (National Center for Advancing Translational Sciences (NCATS), 2013):
In all, about 420,000 compounds went through this assay and about 64,000 (15%) were called active. Inconclusive means that the source gave no clear call. Such entries were picked first, then a sample of the others. Calls come from the whole dose curve; as a rule, active = well fitted inhibition curve with a large enough effect; inconclusive = small, poorly fitted or top-dose-only effect; inactive = flat fitted curve, though single readings scatter. Potencies of inconclusive entries are left out as doubtful fits.

assay: qHTS for Inhibitors of human tyrosyl-DNA phosphodiesterase 1 (TDP1): qHTS in cells in absence of CPT; conditions: DT40 Tdp1-/- hTDP1 cells, no CPT, ATP luminescence, 48 h; activity change, negative = growth inhibition: at 46.2 µM (top of the series); note: nearly all actives have a fitted effect of over 55% in size
In short: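 DT40 Tdp1-/-;hTDP1 cells, no CPT (DMSO vehicle only), 400 cells/well; compounds pin-transferred; ≥48 hr, 37 °C; CellTiter-Glo 30 min RT dark, luminescence read.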
% is set by controls: 0 for no effect and ±100 for the full control effect; potency is the fitted concentration of half-maximal effect; tags give direction and shape of the fitted curve.

SMILES	Potency	activity change, negative = growth inhibition
COc1cccc(NC(=O)CN2C(=O)CSc3ccc(S(=O)(=O)N4CCC(C)CC4)cc32)c1	inconclusive [inhibitor, single point]	–
COc1cc(NC(=O)Cn2c([N+](=O)[O-])cnc2C)c(OC)cc1Cl	inactive	–
CCS(=O)(=O)c1ccc2c(c1)N(S(=O)(=O)c1ccc(Cl)cc1)CC(C(=O)O)O2 (stereo not drawn)	inactive	–
Cc1[nH]c2c(C(=O)NCC3Cc4cccc(-c5cccnc5)c4O3)cccc2c1C (stereo not drawn)	inconclusive [inhibitor, single point]	–
O=[N+]([O-])c1ccc(NNS(=O)(=O)c2cc(Cl)ccc2Cl)nc1	inconclusive [inhibitor, partial curve]	–
Cc1ccc(NC(=O)Cn2c(=O)cc(-c3ccccc3)c3c(C)nn(C)c32)c(Cl)c1	inactive	–
O=C(COC(=O)C12CC3CC(CC(Br)(C3)C1)C2)N1CCOCC1	inactive	–
O=CN1CCN(c2c([N+](=O)[O-])c(=O)oc3ccccc23)CC1	–	inconclusive: -32% [inhibitor]
COc1cc(OC)c(C(=O)OCCCOC(=O)c2cc(OC)c(OC)cc2OC)cc1OC	–	inconclusive: -30.4% [inhibitor]
COc1ccc(/C=C2\SC(=S)N(CC(=O)OCC(=O)Nc3ccc(C)cc3Cl)C2=O)cc1	inactive	–
Cc1cc(Nc2ccccc2)n(-c2ccc(Br)cc2)n1	inconclusive [inhibitor, single point]	–
CCOCCCNC(=O)Cn1nc(CC)n2c(cc3c(OC)cccc32)c1=O	inactive	–
O=[N+]([O-])c1csc2ccccc12	inactive	–
COc1ccc(-n2nc(C(=O)NCC(=O)N(C)Cc3ccccc3)c3ccccc3c2=O)c(OC)c1	inconclusive [inhibitor, single point]	–
N#Cc1ccccc1NC(=O)C(=O)NCC(c1cccnc1)N1CCc2ccccc21 (stereo not drawn)	active: 16.4 µM	–
CCOC(=O)CC(NC(=O)CCc1c(C)nc2cc(-c3ccccc3)nn2c1C)c1ccc(C)cc1 (stereo not drawn)	active: 18.4 µM	–
O=C(c1csc(Nc2cccc3ccccc23)n1)N1CCCC1	inconclusive [inhibitor, single point]	–
CNc1cncc(-c2cc(C)c(O)c(C)c2)n1	active: 6.51 µM	–
O=C(NC(Cc1ccccc1)c1ccc2c(c1)OCCCO2)c1ccccc1 (stereo not drawn)	inactive	–
CC(C)(C)NC(=O)N1c2ccccc2Sc2ccccc21	inactive	–
O=C(CSc1ccccn1)Nc1nonc1[N+](=O)[O-]	active: 4.11 µM	–
O=C1COc2ccc(C(=O)COC(=O)Cc3ccc(F)cc3)cc2N1	inconclusive [inhibitor, full curve, poor fit]	–
O=C(COC(=O)/C=C/c1cccc(Br)c1)NC1CCCC1	–	inconclusive: -29.6% [inhibitor]
Cc1ccc(NC(=O)C2CCCN(c3ncnc4onc(C)c34)C2)cc1Cl (stereo not drawn)	active: 16.4 µM	–
COc1cccc(NC(=O)Nc2cccs2)c1	inconclusive [inhibitor, single point]	–

SMILES	Potency	activity change, negative = growth inhibition
COc1cc2oc(=O)ccc2cc1-c1c(OC)ccc2ccc(=O)oc12	inconclusive [inhibitor, single point]	–
CC(C)(C)n1nnnc1C(c1ccc(F)cc1)N(Cc1ccc(F)cc1)Cc1ccco1 (stereo not drawn)	inconclusive [inhibitor, single point]	–
Cn1nccc1-c1ccc(C(=O)Nc2cccc(NS(C)(=O)=O)c2)c2occc12	active: 25.9 µM	–
O=C(CCN1C(=O)C2(OCCO2)c2ccccc21)c1ccccc1	inconclusive [inhibitor, single point]	–
CCOc1ncccc1C(=O)OCc1cccc([N+](=O)[O-])c1	inactive	–
O=C(NCCN1CCN(c2cccc(Cl)c2)CC1)C1CCCN(S(=O)(=O)c2cnc[nH]2)C1 (stereo not drawn)	inconclusive [inhibitor, single point]	–
COc1ccc([N+](=O)[O-])cc1NC(=O)C(C)OC(=O)c1ccccc1C(=O)c1ccc(Cl)cc1 (stereo not drawn)	inconclusive [inhibitor, partial curve]	–
CCn1c(O)c(C2=c3ccccc3=NC2=O)c2cc(Br)ccc21	active: 11.6 µM	–
Cc1ccccc1-c1nc(CN(C)C(C)c2ccon2)c(C)o1 (stereo not drawn)	inconclusive [inhibitor, single point]	–
CCOC(=O)N1CCC(N2CCCC(C(=O)c3ccc4cc(OC)ccc4c3)C2)CC1 (stereo not drawn)	active: 14.6 µM	–
CC(C)CN1C=C2C(=O)C(C)(OC(=O)CCc3ccccc3)C(=O)C=C2C=C1c1ccc(C#N)cc1 (stereo not drawn)	active: 18.4 µM	–
CC1CCN(S(=O)(=O)c2nnc(NC(=O)COc3ccccc3F)s2)CC1	inactive	–
COc1ccc(C(=O)O)cc1S(=O)(=O)NCc1ccccn1	inactive	–
COc1ccccc1-c1cc2nc(C)c(CCC(=O)NC3CCCCC3)c(C)n2n1	inactive	–
O=C(CCn1c(=S)[nH]c2ccccc2c1=O)NCCc1ccc(Cl)cc1	–	inconclusive: -34.2% [inhibitor]
CCOC(=O)c1ccc(N2Cc3ccccc3C2=NC(=O)c2cccs2)cc1	inconclusive [inhibitor, single point]	–
Fc1ccc(OCCCCCn2ccnc2)cc1	inconclusive [inhibitor, partial curve]	–
CN1C(=O)/C(=C/c2ccc(OC(=O)c3ccco3)cc2)SC1=S	inconclusive [inhibitor, single point]	–
Cc1cccc(NC(=O)Nc2cccc(C#N)c2)n1	inconclusive [inhibitor, single point]	–
CCN(CC)S(=O)(=O)c1ccc(C(=O)Nc2nnc(COC)o2)cc1	inactive	–
CC1C(=O)N(Cc2cn(CCC3OCCCO3)nn2)CCS(=O)(=O)N1Cc1ccc(-c2ccc(Cl)nc2)cc1 (stereo not drawn)	inconclusive [inhibitor, single point]	–
Cc1ccc(Cn2c(=O)n(Cc3ccccc3Cl)c(=O)c3cccnc32)cc1	inconclusive [inhibitor, partial curve]	–
Cc1cccc(OCC(=O)Nc2ccc(N3CCCC3)cc2)c1C	inconclusive [inhibitor, full curve]	–
COC(=O)C[C@H]1C[C@@H]2c3cc(NC(=O)NC4CCCC4)ccc3O[C@@H]2[C@@H](CO)O1	inconclusive [inhibitor, partial curve]	–
CCOc1ccc(-c2nnn(CC(=O)N3CCN(c4ccc(OC)cc4)CC3)n2)cc1OCC	inconclusive [inhibitor, partial curve, poor fit]	–

SMILES	Potency	activity change, negative = growth inhibition
Cc1c(Cl)cccc1NC(=O)[C@@H](NC(=O)c1ccccc1Cl)C(C)C	inconclusive [inhibitor, partial curve, poor fit]	–
COc1cccc(NC(=O)COC(=O)COc2cccc3c2OC(C)(C)C3)c1	inactive	–
Cc1ccccc1SCC(=O)Nc1cc(C(F)(F)F)ccc1N1CCOCC1	inconclusive [inhibitor, single point]	–
CCNc1sc(S(C)(=O)=O)nc1S(=O)(=O)c1ccc(C)cc1	inactive	–
CN(C)c1ccc(/C=C2/C=C(c3ccc4c(c3)CCCC4)OC2=O)cc1	inconclusive [inhibitor, partial curve]	–
CCOC(=O)c1cc(C)n(Cc2ccc(OCC)c(OC)c2)c1C	inconclusive [inhibitor, single point]	–
COc1cc(SC)ccc1C(=O)OCC(=O)NCC(C)C	inactive	–
O=C(O)c1cccc(NC(=S)N/N=C/c2ccccc2OCc2cccc(Br)c2)c1	inconclusive [inhibitor, single point]	–
COc1ccccc1-c1csc(C(C)(NC(C)=O)c2ccccc2)n1 (stereo not drawn)	inconclusive [inhibitor, single point]	–
O=C(COc1ccccc1C(=O)Nc1cccnc1)Nc1ccc(Br)cc1	inconclusive [inhibitor, single point]	–
Nc1cc(=O)[nH]c(SCC(=O)NNC(=O)Cc2ccccc2)n1	inactive	–
COc1cc(/C=N\NC(=O)c2ccc(C)nc2)ccc1OC(=O)c1cccc(F)c1	–	inconclusive: -33.7% [inhibitor]
O=C(NCc1ccc(Cl)cc1)C1CCN(C(=O)c2ccc(Cl)cc2)CC1	inconclusive [inhibitor, partial curve]	–
CCOc1ccc(NC(=O)CN(C)C(=O)CSc2ccccc2)cc1OCC	inactive	–
Cc1cc(C(=O)N2CCN(c3cc(Cl)ccc3C)CC2)c2c(C)nn(-c3ccccc3)c2n1	inconclusive [inhibitor, single point]	–
O=C1CCCCC1C(Nc1ccc(Cl)cc1)c1ccccc1 (stereo not drawn)	inactive	–
Cc1ccc(S(=O)(=O)N2CCN(C(=O)c3ccccc3-c3nc4ccccc4s3)CC2)c(C)c1	inconclusive [inhibitor, single point]	–
O=C(c1ccccc1)N1CCN(c2nc3ccc([N+](=O)[O-])cc3s2)CC1	active: 5.17 µM	–
COc1ccc(CNC(=O)c2cccc(NC3=NC4CS(=O)(=O)CC4S3)c2)cc1 (stereo not drawn)	inactive	–
O=C1NC2(CCCCCC2)C(=O)N1Cc1ccccc1F	inactive	–
Cc1cc(C(=O)N/N=C/c2cccc([N+](=O)[O-])c2)c2ccccc2n1	inconclusive [inhibitor, single point]	–
CC1=C(C(=O)N(C)Cc2ccccc2)C2(CCC(C)CC2)OC1=O (stereo not drawn)	inconclusive [inhibitor, single point]	–
CSCCC(NS(=O)(=O)c1ccc2c(c1)oc(=O)n2C)C(=O)NCc1cccs1 (stereo not drawn)	inactive	–
